PubChem BioAssay AID504832 (National Center for Advancing Translational Sciences (NCATS), 2011)
The whole screen tested about 310,000 compounds, of which about 18,000 (5.8%) were called active. This list was built around the results that the source calls inconclusive (neither active nor inactive); the mix of calls is not that of the screen. Calls follow the shape of the dose curve; as a rule, active = well fitted inhibition curve with a large enough effect; inconclusive = small, poorly fitted or top-dose-only effect, or another doubt; inactive = no such curve, though single readings can be large or run the other way. Potencies of inconclusive entries are left out as doubtful fits.

test: Primary qHTS for delayed death inhibitors of the malarial parasite plastid, 48 hour incubation; conditions: P. falciparum luciferase growth in erythrocytes; series mostly up to 28.7 µM; activity change, negative = inhibition: at the top concentration
In short: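 Compounds are pin-transferred into medium, infected erythrocytes (2% hematocrit, 0.1% parasitemia final) are added, and plates sit one parasite generation at 37 C in 5% CO2. Detection reagent is then added and luminescence measured.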
% is scaled to controls: 0 for no effect and ±100 for the full control effect; potency is read from the fitted curve at half-maximal effect; tags tell the direction and shape of the fitted curve.

| SMILES | activity change, negative = inhibition | Potency |
| --- | --- | --- |
| COc1ccc(/C=N/NC(=O)c2cccc(Br)c2)cc1COc1ccccn1 | inactive: -11.5% |  |
| O=C(NCCS(=O)(=O)N1CCN(c2ccccc2F)CC1)c1cc(=O)c2ccccc2o1 | inactive: -0.558% |  |
| Cc1nc(Nc2ccc(S(N)(=O)=O)cc2)sc1C(=O)Nc1ccccc1 | inactive: 15.8% |  |
| COc1ccc2nc(NC(=O)c3ccc(-n4nc(C)cc4C)cc3)sc2c1 |  | inconclusive [inhibitor, single point] |
| Cc1cc(N2CCN(C)CC2)nc2ccc(NC(=O)CCC(=O)N3CCN(c4ccc([N+](=O)[O-])cc4)CC3)cc12 |  | active: 5.22 µM |
| Oc1cc(Cl)ccc1Oc1ccc(Cl)cc1Cl |  | active: 9.53 µM |
| CC1Cc2ccccc2N1C(=O)CCNS(=O)(=O)c1ccc2c(c1)CCC(=O)N2 (stereo unspecified) |  | inconclusive [inhibitor, single point] |
| CC1CCN(CCCNC(=O)c2ccc3c(=O)n(Cc4ccc(Cl)cc4)c(=S)[nH]c3c2)CC1 |  | active: 13.1 µM |
| COc1ccc(NC(=O)c2cccc3c(Br)cccc23)cc1 | inactive: 9.04% |  |
| CC(C)(C)OC(=O)NNc1c2ccccc2nc2ccccc12 |  | inconclusive [inhibitor, full curve, poor fit] |
| CN(c1ncnc(N)c1[N+](=O)[O-])C1CCCCC1 | inactive: 32.5% |  |
| Cc1ccc(S(=O)(=O)N2CCC(C(=O)NNC(=O)c3ccc(F)cc3)CC2)cc1 | inactive: -2.63% |  |
| Cc1cccc(NC(=S)NC2CCSc3ccccc32)c1 (stereo unspecified) |  | active: 11.7 µM |
| COc1ccc(NC(C)=O)cc1S(=O)(=O)Nc1cccc(S(=O)(=O)NC2=NCCC2)c1 | inactive: -1.1% |  |
| CCOc1ccc(C(C)NC(=O)c2ccccc2OCc2c(C)noc2C)cc1OCC (stereo unspecified) |  | inconclusive [inhibitor, partial curve] |
| COc1ccc2cc(CCNC(=O)c3cccc([N+](=O)[O-])c3)c(=O)[nH]c2c1 |  | active: 5.22 µM |
| Cc1ccc(NC(=O)CCN2CCN(C/C=C/c3ccccc3)CC2)cc1 |  | inconclusive [inhibitor, single point] |
| O=c1[nH]cccc1-c1nc2ccccc2n1Cc1ccc(Cl)cc1 |  | inconclusive [inhibitor, single point] |
| CCCCOc1ccc(N(CC(=O)NC(C)(C)C)C(=O)CCC(=O)Nc2nccs2)cc1 |  | inconclusive [inhibitor, partial curve, poor fit] |
| CC1(C(=O)N2CCC(CC3CC(c4ccc(Cl)cc4)=NO3)(C(=O)NCC3CCCCC3)CC2)CC1 (stereo unspecified) |  | inconclusive [inhibitor, full curve, poor fit] |
| O=C(CCNC(=O)c1ccccc1)NC1CCCc2ccccc21 (stereo unspecified) |  | inconclusive [inhibitor, single point] |
| COc1ccccc1-c1cc(C(F)(F)F)nc(N2CCOCC2)n1 |  | inconclusive [inhibitor, full curve, poor fit] |
| O=C(CNC1=NCCC1)c1ccc2c(c1)OCCO2 |  | active: 6.57 µM |

| SMILES | activity change, negative = inhibition | Potency |
| --- | --- | --- |
| C/C(=N\NC(=O)c1ccc(NS(=O)(=O)c2cccs2)cc1)c1ccc(O)cc1O |  | inconclusive [inhibitor, single point] |
| CC1(C2CC2)NC(=O)N(CC(=O)Nc2ccc(C(F)(F)F)cc2)C1=O (stereo unspecified) |  | inconclusive [inhibitor, single point] |
| NNC(=O)CN1C(=O)Nc2ccc(Cl)cc2C1c1ccccc1 (stereo unspecified) |  | inconclusive [inhibitor, partial curve] |
| Cc1cc2nc3c(=O)n(Cc4ccccc4)c(=O)[nH]c3nc2cc1N | inactive: -1.25% |  |
| O=C(NC(NC(=S)Nc1ccccc1O)C(Cl)(Cl)Cl)c1ccco1 (stereo unspecified) |  | inconclusive [inhibitor, single point] |
| COc1ccnc2c1c(=O)n(Cc1ccc(Cl)cc1Cl)c(=O)n2C |  | inconclusive [inhibitor, single point] |
| Cc1cccc(/C=N/NC(=O)c2ccc(NC(=O)c3ccccc3Cl)cc2)n1 | inactive: 13.7% |  |
| O=C(NCc1cccnc1)c1ccc2c(=O)n(CCCN3CCCC3=O)c(=S)[nH]c2c1 |  | inconclusive [inhibitor, partial curve, poor fit] |
| CCOc1ccc(NC(=O)CN2C(=O)c3ccccc3C2=O)cc1 | inactive: 2.43% |  |
| Cc1ccc(C(=O)C[n+]2cccc3cc(C)ccc32)cc1 |  | inconclusive [inhibitor, single point] |
| CCCC1CC(C)(c2csc(Nc3ccc(OCC)cc3)n2)OC1=O (stereo unspecified) |  | inconclusive [inhibitor, single point] |
| Cc1cc(C)c2nc(SCC(=O)NCCC3=CCCCC3)cc(C)c2c1 |  | inconclusive [inhibitor, single point] |
| O=C(Nc1ccc(Cl)cc1)Nc1ccccc1CC[N+](=O)[O-] |  | active: 11.7 µM |
| O=C(CN1C(=O)/C(=C\c2cccc(Br)c2)Oc2ccccc21)NCC1CCCO1 (stereo unspecified) |  | inconclusive [inhibitor, single point] |
| C/C=C/C=C/C(=O)N1CC2(CC(c3cccc(NC(=O)/C=C/C)c3)=NO2)C[C@@H]1C(N)=O (stereo partly specified) | inactive: 45% |  |
| CN1CCN(C(c2cccc(C(F)(F)F)c2)c2nnnn2Cc2ccccc2)CC1 (stereo unspecified) |  | inconclusive [inhibitor, single point] |
| O=C(CC(=O)N/N=C/c1ccc(Cl)cc1Cl)NCc1ccccc1 |  | inconclusive [inhibitor, single point] |
| COCCNC(=O)c1ccc2snnc2c1 | inactive: 0.921% |  |
| Cc1ccc2nc3sc(C(=O)Nc4ccc(F)cc4)cc3cc2c1 |  | inconclusive [inhibitor, full curve] |
| O=C1NC(=S)NC(=O)C1=Cc1ccc2c(c1)CCN2CCCCl | inactive: 123% |  |
| CCn1c(SCC(=O)N(C)Cc2ccc(OC)c(F)c2)nc2cc(S(N)(=O)=O)ccc21 | inactive: -7.12% |  |
| CCc1cc(=O)oc2cc(C)cc(OCC(=O)NC3CCN(Cc4ccccc4)CC3)c12 |  | inconclusive [inhibitor, single point] |
| O=C(CCNS(=O)(=O)c1ccccc1C(F)(F)F)N1CCN(C(c2ccccc2)c2ccccc2)CC1 |  | inconclusive [inhibitor, partial curve, poor fit] |
